# Assay results taken from paper PMC7347597, “INTS10–INTS13–INTS14 form a functional module of Integrator that binds nucleic acids and the cleavage module” (Nature Communications, 2020).
# Sequences of proteins named here, by UniProt entry; tags and fusion partners are left off. A change or cut given only in a name is not applied to a line headed by its entry. A line that says so, or that is headed by a name, gives the form on record, which may keep a tag or linker. Residues count along the entry.
# UniProt Q9NVM9: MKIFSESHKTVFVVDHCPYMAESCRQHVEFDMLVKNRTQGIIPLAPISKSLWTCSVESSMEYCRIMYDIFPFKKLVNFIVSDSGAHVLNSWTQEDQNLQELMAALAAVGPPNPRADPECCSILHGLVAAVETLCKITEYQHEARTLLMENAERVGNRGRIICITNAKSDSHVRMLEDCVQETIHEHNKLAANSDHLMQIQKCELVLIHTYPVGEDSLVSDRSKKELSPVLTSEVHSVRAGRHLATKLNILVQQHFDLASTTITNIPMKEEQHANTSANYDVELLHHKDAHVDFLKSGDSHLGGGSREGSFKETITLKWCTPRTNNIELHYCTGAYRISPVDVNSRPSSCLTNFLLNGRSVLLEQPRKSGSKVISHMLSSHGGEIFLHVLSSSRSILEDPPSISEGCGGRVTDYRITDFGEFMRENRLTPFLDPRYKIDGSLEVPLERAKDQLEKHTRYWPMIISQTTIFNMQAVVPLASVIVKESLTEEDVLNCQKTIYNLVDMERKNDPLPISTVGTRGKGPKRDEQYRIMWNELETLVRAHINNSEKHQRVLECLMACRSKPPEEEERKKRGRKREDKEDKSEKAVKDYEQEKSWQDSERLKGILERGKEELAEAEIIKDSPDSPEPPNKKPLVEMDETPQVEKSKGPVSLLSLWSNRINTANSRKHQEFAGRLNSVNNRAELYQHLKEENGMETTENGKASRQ
# V5-SBP-INTS13 ΔCMBM (residues 1–648): residues 1-648 of Q9NVM9
# GST-tagged INTS13 C-terminus (INTS13 C, residues 566–706): residues 566-706 of Q9NVM9
# GST-INTS13 cleavage module-binding motif (CMBM, residues 649–694): residues 649-694 of Q9NVM9
# UniProt Q96SY0: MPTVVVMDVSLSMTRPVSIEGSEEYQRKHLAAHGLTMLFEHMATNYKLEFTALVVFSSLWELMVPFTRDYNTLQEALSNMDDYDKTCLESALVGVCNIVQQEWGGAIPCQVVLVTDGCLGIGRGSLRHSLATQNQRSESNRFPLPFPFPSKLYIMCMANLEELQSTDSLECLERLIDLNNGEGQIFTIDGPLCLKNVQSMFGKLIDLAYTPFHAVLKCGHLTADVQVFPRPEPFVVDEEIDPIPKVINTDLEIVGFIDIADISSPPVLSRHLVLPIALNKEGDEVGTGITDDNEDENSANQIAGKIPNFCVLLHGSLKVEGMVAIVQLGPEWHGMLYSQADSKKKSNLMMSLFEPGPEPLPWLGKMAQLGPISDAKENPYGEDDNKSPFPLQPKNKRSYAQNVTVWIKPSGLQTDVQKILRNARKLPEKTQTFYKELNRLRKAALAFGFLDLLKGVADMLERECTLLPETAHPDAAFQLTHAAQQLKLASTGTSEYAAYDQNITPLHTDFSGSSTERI
# V5-SBP-INTS14 VWA domain (VWA14, residues 1–210): residues 1-210 of Q96SY0
# V5-SBP-INTS14ΔVWA (residues 211–518): residues 211-518 of Q96SY0
# UniProt Q96HW7: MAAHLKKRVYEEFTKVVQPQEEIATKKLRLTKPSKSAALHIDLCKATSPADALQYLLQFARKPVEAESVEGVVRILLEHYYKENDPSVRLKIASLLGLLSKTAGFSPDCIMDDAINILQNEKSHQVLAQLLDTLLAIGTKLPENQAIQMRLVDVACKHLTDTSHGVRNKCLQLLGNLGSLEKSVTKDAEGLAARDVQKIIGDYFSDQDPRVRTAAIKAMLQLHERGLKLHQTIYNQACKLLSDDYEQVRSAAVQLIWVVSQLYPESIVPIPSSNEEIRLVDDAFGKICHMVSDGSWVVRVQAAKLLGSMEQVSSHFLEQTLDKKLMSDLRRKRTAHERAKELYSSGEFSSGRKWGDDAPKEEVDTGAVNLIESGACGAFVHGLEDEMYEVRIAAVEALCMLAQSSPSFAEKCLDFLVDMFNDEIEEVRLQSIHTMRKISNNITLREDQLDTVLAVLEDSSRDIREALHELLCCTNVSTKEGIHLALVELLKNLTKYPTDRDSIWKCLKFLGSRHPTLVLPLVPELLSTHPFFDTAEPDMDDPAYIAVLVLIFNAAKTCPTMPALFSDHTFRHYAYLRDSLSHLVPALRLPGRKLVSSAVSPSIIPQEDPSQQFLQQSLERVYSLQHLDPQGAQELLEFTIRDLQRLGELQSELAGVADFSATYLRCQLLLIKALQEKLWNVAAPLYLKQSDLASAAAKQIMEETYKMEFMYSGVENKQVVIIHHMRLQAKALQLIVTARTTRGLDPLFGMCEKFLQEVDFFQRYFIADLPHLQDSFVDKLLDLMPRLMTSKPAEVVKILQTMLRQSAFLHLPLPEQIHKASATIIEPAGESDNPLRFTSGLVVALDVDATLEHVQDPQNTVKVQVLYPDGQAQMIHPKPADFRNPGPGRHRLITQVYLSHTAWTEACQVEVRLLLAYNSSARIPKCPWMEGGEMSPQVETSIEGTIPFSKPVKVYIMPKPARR
# UniProt Q9NV88: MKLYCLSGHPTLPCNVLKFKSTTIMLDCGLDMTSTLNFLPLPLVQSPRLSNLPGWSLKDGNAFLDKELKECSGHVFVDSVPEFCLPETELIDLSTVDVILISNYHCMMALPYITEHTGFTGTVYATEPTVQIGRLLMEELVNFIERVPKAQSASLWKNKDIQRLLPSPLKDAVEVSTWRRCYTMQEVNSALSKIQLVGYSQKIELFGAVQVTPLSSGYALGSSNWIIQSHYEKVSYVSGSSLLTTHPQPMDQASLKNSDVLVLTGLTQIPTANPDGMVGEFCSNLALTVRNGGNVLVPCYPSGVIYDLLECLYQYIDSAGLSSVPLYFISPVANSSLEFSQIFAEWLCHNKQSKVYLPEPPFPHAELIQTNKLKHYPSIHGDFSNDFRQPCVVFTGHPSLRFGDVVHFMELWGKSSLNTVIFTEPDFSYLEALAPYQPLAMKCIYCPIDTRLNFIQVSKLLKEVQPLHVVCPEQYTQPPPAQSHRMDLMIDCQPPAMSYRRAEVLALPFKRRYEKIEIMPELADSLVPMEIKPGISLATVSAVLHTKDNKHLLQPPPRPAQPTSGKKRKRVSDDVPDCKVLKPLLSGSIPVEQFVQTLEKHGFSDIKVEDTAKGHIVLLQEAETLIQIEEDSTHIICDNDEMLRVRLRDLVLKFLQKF
# UniProt Q5TA45: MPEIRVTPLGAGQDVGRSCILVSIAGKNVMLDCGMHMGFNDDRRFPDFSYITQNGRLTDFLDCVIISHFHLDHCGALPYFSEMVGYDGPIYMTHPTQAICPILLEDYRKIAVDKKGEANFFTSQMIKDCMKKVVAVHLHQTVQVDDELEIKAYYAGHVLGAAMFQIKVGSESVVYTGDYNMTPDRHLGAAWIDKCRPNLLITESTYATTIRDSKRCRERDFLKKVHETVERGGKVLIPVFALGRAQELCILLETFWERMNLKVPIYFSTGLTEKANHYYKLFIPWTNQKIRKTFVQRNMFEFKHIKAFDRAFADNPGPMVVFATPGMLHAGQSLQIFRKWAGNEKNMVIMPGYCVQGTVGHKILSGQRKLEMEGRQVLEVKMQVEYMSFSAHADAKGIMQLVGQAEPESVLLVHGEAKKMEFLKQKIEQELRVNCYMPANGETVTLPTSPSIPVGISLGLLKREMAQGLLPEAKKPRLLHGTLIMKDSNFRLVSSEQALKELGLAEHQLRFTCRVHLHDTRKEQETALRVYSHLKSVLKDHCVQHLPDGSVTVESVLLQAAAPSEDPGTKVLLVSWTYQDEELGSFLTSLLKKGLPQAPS
# UniProt Q9NVR2: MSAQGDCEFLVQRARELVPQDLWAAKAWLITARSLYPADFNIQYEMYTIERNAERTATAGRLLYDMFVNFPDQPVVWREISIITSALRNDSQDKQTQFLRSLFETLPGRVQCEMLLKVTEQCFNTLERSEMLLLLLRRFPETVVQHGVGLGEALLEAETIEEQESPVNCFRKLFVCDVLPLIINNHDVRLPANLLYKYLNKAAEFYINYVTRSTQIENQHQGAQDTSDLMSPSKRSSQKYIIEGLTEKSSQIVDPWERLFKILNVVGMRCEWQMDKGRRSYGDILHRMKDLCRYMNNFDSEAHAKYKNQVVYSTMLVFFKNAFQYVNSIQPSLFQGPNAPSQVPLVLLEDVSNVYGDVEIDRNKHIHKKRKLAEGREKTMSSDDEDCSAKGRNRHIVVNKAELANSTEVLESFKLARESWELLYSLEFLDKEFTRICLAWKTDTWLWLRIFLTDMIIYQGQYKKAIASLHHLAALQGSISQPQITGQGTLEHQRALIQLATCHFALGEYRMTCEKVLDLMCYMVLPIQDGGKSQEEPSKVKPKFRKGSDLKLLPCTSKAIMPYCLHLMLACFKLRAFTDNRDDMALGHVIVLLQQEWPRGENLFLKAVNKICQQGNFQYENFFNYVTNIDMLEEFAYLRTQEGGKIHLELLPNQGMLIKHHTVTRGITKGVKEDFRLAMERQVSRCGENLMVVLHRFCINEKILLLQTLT
# UniProt Q9NVH2: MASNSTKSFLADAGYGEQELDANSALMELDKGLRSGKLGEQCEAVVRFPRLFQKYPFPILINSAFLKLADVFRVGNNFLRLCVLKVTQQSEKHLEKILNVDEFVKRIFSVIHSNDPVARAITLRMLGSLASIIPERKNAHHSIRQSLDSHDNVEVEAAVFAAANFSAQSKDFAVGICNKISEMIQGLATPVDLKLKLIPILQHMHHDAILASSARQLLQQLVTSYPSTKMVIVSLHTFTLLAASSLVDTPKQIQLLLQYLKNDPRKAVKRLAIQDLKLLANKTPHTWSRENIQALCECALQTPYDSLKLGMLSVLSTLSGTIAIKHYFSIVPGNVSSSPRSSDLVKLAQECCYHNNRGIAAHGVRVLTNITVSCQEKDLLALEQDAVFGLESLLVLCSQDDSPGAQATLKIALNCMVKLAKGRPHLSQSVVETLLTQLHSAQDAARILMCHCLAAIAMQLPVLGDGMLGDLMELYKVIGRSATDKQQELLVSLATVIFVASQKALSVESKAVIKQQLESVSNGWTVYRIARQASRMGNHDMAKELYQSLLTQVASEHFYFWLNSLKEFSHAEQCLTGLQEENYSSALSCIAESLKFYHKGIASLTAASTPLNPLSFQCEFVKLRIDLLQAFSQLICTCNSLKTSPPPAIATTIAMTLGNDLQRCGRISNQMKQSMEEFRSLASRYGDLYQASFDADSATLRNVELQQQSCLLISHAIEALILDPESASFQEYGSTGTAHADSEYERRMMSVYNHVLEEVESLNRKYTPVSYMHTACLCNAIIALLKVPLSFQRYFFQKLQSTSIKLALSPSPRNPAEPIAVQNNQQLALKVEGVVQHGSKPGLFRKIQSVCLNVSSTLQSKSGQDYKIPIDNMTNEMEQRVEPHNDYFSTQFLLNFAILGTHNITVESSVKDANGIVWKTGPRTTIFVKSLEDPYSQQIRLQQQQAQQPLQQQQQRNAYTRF
# Results are given in words; binding and its absence hold for the method and conditions named. For some of these results: In cells and extracts the contact can be indirect. Some binding calls cover weakened binding; strength is not graded here.
# Columns and labels:
# [1] = molecular target: GST-INTS13 cleavage module-binding motif (CMBM, residues 649–694) (human) (UniProt Q9NVM9); assay: pull-down; GST-INTS13 C-terminal constructs from E. coli lysates with insect cell extracts expressing cleavage module subunits, on glutathione sepharose; 50 mM HEPES pH 7.5, 200 mM NaCl, 2 mM DTT; Coomassie gel and Western blots
# [2] = molecular target: GST-tagged INTS13 C-terminus (INTS13 C, residues 566–706) (human) (UniProt Q9NVM9); assay: as above
# [3] = molecular target: GST-tagged INTS14 VWA (1–210) (human) (UniProt Q96SY0); assay: pull-down; GST-INTS14 VWA and MBP-INTS10 from E. coli lysates mixed with glutathione sepharose; lysis buffer 50 mM HEPES pH 7.5, 200 mM NaCl, 2 mM DTT; 30 min on ice
# [4] = molecular target: V5-SBP-INTS13 ΔCMBM (residues 1–648) (human) (UniProt Q9NVM9); assay: pull-down; coprecipitation of endogenous proteins with an overexpressed V5-SBP-tagged bait from HEK293T cells on streptavidin sepharose beads; NET buffer (50 mM Tris–HCl pH 7.5, 150 mM NaCl, 0.1% Triton X-100, 10% glycerol, 2 mM DTT) with DNase I and RNase A; Western blot
# [5] = molecular target: endogenous INTS14 (human (endogenous in HEK293T)) (UniProt Q96SY0); assay: SEC; nuclear extract of HEK293T cells fractionated on Superose 6 10/300 GL in 50 mM HEPES–KOH pH 7.9, 500 mM KCl, 1.5 mM MgCl2, 0.2 mM EDTA, 10% glycerol, 0.5 mM DTT; even fractions analysed by Western blot
# [6] = molecular target: V5-SBP-tagged INTS14 (wild type) (human) (UniProt Q96SY0); assay: pull-down; coprecipitation of endogenous proteins with an overexpressed V5-SBP-tagged bait from HEK293T cells on streptavidin sepharose beads; NET buffer (50 mM Tris–HCl pH 7.5, 150 mM NaCl, 0.1% Triton X-100, 10% glycerol, 2 mM DTT) with DNase I and RNase A; Western blot
# [7] = molecular target: V5-SBP-INTS14ΔVWA (residues 211–518) (human) (UniProt Q96SY0); assay: as above
# [8] = molecular target: V5-SBP-tagged INTS13 (wild type) (human) (UniProt Q9NVM9); assay: as above
# [9] = molecular target: V5-SBP-INTS14 MIDAS pocket mutant D8A, S10A, S12A (human) (UniProt Q96SY0); assay: pull-down; coprecipitation from HEK293T cells overexpressing both partners; V5-SBP-tagged bait on streptavidin sepharose beads, λN-HA-tagged prey; RIPA buffer (50 mM HEPES pH 7.6, 150 mM NaCl, 1% NP-40, 0.5% sodium deoxycholate, 2 mM DTT) with DNase I and RNase A; 1 h at 4 °C; Western blot
# [10] = molecular target: V5-SBP-INTS14 VWA domain (VWA14, residues 1–210) (human) (UniProt Q96SY0); assay: as above
# [11] = molecular target: V5-SBP-INTS14 MIDAS pocket mutant L11E, R15A (human) (UniProt Q96SY0); assay: as above
# [12] = molecular target: V5-SBP-INTS14ΔVWA (residues 211–518) (human) (UniProt Q96SY0); assay: as above
# [13] = molecular target: V5-SBP-tagged INTS13 (wild type) (human) (UniProt Q9NVM9); assay: as above
# [14] = molecular target: V5-SBP-tagged INTS14 (wild type) (human) (UniProt Q96SY0); assay: as above
substance,measurement,setting,value
2S-INTS4 (from UniProt Q96HW7 1-963),binding,[1],no binding
2S-INTS9 (from UniProt Q9NV88 1-658),binding,[1],no binding
2S-INTS9–(2S)-INTS11 (from UniProt Q9NV88 1-658; Q5TA45 1-600) (complex),binding,[1],no binding
2S-INTS11 (from UniProt Q5TA45 1-600),binding,[1],no binding
INT cleavage module (His10-INTS4–INTS9–(2S)-INTS11) (from UniProt Q96HW7 1-963; Q9NV88 1-658; Q5TA45 1-600) (complex),binding,[2],binds
MBP-INTS10 (from UniProt Q9NVR2 1-710),binding,[3],binds
endogenous INTS7 (from UniProt Q9NVH2 1-962),binding,[4],no binding
endogenous INTS13 (from UniProt Q9NVM9 1-706),binding,[5],binds
same,binding,[6],binds
same,binding,[7],binds
endogenous INTS14 (from UniProt Q96SY0 1-518),binding,[8],binds
λN-HA-tagged INTS10 (from UniProt Q9NVR2 1-710),binding,[9],no binding
same,binding,[10],binds
same,binding,[11],no binding
same,binding,[12],no binding
λN-HA-tagged INTS13 (wild type) (from UniProt Q9NVM9 1-706),binding,[13],binds
same,binding,[14],binds
λN-HA-tagged INTS14 (wild type) (from UniProt Q96SY0 1-518),binding,[13],binds
same,binding,[14],binds
